The record followed here is the supplement of paper PMC10126150.

This series concerns ATP. The series is described as follows: switch fluorescence ratio, 500 uM ATP over buffer (Cy3 cluster intensity, sum of 5 cycles each) (fold (ratio)); higher = stronger signal-on switching upon ATP binding; sequences stand for … in TCGTCGGCAGCGTCAGATGTGTATAAGAGACAGTTTTTTTTTTTTTTTTTTTTTTTTT…TC. The following applies: aptamer strand: ATP DNA aptamer (quencher-CACCTGGGGGAGTATTGCGGAGGAAGG + anchor), 100 nM annealed; ATP concentration: 500 uM; one replicate. In a few lines: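 Between each of five buffer/ATP cycles, the flow-cell was stripped with NaOH and re-annealed. Each cycle imaged Cy3-labelled switching-strand clusters, annealed to 100 nM quencher-labelled ATP aptamer on a modified Illumina MiSeq flow-cell, first in selection buffer and then after 15 min with 500 uM ATP at 22 °C. The fluorescence ratio is summed target-cycle over summed buffer-cycle Cy3 intensity per cluster, averaged per switch-domain sequence, with clusters outside 100-1000 RFU excluded.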

Sequences with one replicate were seen in a single cluster, so their values are uncertain.
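Note: ATP exposure 15 min at 22 °C before imaging.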

On to ATGTCTCAGA, for which the switch fluorescence ratio stood at 1.01. To GATGACGTGG belongs 1.03; to TGTTAAAGGT, 1.04; to CCCTCTTGGG, 1.02.

For the sequence ATGGACGCTC, the switch fluorescence ratio turned out to be 1.08. AAGCATGAAA: the switch fluorescence ratio came to 0.994. GTGGTCTCTT: the switch fluorescence ratio turned out to be 0.953. To CAGGGCTGTG belongs 0.97; to GCCTGTTTTC, 1.01; to TTGCCCCAAT, 1.06. In the case of CGTGACTCCG, the switch fluorescence ratio turned out to be 1.2. To TTATTTCGGT belongs 1.01. To CTTTCGACGT belongs 1.38. Turning to CGCGAGTGAG, the switch fluorescence ratio stood at 1.07. To AAGGGTGCCT belongs 1.04; to AGTTTTGTAA, 0.951. To GTGTAATGGG belongs 1.02. As for TTAACTAACT, the switch fluorescence ratio was 1.05. Under AAAAAAGTCG stands 1. To TGTCGGGACA belongs 1.01. To CGTAAAGCAC belongs 1.29; to AGCGATTCGG, 0.995; to GGATTTTCTG, 1.01.

Regarding TGATAGACGA, the switch fluorescence ratio was found to be 1.03. Under TCCAAATAAC stands 1.22; under AGTTAATAGT, 1.01; under TGGTATGAGA, 1.01.

With CGCGCCCATT, the switch fluorescence ratio was 1.04.

For the sequence GCGAAGATCC, the switch fluorescence ratio was 1.04.

As to AAAACCATTT, the switch fluorescence ratio came out at 1.03. Under AGTGGTTCTT stands 1.

Take TTTGGTAAGG: the switch fluorescence ratio was found to be 0.971.

With TTTCTAGAAG, the switch fluorescence ratio stood at 1.03. Under AAAGTGCAAT stands 1.09; under TCATATGCCC, 1; under AATCGTGCGA, 0.985. Under ACTCTGGTGG stands 1.03; under CGCCCAGGTA, 2.9. Under TCGGATACTG stands 1.07; under TGGAGTCAGC, 0.989; under CGACCCGGCG, 1.07. On to TAATATTATG, for which the switch fluorescence ratio amounted to 1.03. Under GGAGAGTGT stands 0.969.

Consider GTCCTTGTA, for which the switch fluorescence ratio was determined as 0.996. Consider AAAAATCCGC, for which the switch fluorescence ratio turned out to be 1.45. To TAGTTGCGCG belongs 0.991; to AAGCCGTTAT, 1.02; to TCTTAAAGTA, 1.03. To CTGTGAATAA belongs 1.02; to GAGGCATTGA, 1.1. To CAGCCCGTTG belongs 1. With TGGACGAGGT, the switch fluorescence ratio stood at 1.02. Under AGGAGGACCT stands 1.04. For TTTGAAGTAG, the switch fluorescence ratio amounted to 1.02. For TGTTATGCGA, the switch fluorescence ratio was 0.981.

Take AAAGTGGTAC: the switch fluorescence ratio was determined as 1.03. As for TCGGCCGCCA, the switch fluorescence ratio is 1.39. To TTACAGACTA belongs 1.15. Under TACCTAATAA stands 1.01; under TTGCGCAGGA, 1.05; under GGTATGAAGA, 1.02.

With GCTGGTAGGC, the switch fluorescence ratio stood at 1.01.

In the case of TTGGTGATGC, the switch fluorescence ratio stood at 1.23. Under GGGTTTCCAA stands 0.983.

As to CCATGATTGA, the switch fluorescence ratio turned out to be 0.954. To GCACACCTTC belongs 1.23. Under AGGGCGCGAC stands 1.1; under CATCTGTCAT, 1.3.

With ATGTTCATGC, the switch fluorescence ratio was 1.02.

On to ATAGGGTAGC, for which the switch fluorescence ratio is 1.01. Under AGTAATGATC stands 0.989. Under GAAAATTTTA stands 1; under GATCCAGACA, 0.977; under CTGATTAGTG, 0.96. In the case of GCATGGAATT, the switch fluorescence ratio is 0.961. For GACCTAAGAA, the switch fluorescence ratio came to 1.04.

For TGGTAAAGTC, the switch fluorescence ratio is 1.01. Under TTCGCATATA stands 1.19; under GTTACTAGCC, 0.961; under TGCCAGTACC, 1.

For GCTGTGCACC, the switch fluorescence ratio stood at 0.992. Under ATTGTATGCC stands 0.917.

As for TGGTTACCTG, the switch fluorescence ratio came out at 0.984. To ATTTGGTCTT belongs 1. To ATCATATTG belongs 1.02; to GCACACTCGA, 1.06. Under GTCCTTATGG stands 0.971; under GTGAAGAGCT, 1.01; under GCCAGTACAA, 1.04.

Regarding TGATATGATG, the switch fluorescence ratio turned out to be 1.01.

As for CAGCTAGTCA, the switch fluorescence ratio is 1.05. To CTGTACCTCA belongs 1.03; to AAGGAACATA, 0.984; to AGCAGCAGTC, 1.45.

On to GAACAGGCGC, for which the switch fluorescence ratio was 1.04.

In the case of ACAATTTCGC, the switch fluorescence ratio was 1.07. To ACGTCGGGGA belongs 0.998. To AATAGGCGCT belongs 1.05. To ATTCCTGAAG belongs 1.01. Consider AAAAAAGT, for which the switch fluorescence ratio amounted to 0.956. Under CGTATCTGGT stands 0.907; under TACCTACCTA, 1.3. On to GAGTTTCTGC, for which the switch fluorescence ratio is 1.08. For the sequence GTTGGGAAGC, the switch fluorescence ratio turned out to be 0.955. Under TCACTCGCCA stands 1.17. GTGTTCAATT: the switch fluorescence ratio stood at 0.984. For the sequence ATGCTAAGTA, the switch fluorescence ratio amounted to 0.988. Under AGGGCAAAGA stands 0.959; under ATGAGTCCTG, 0.959; under TTGGCCGGTA, 1.02.

In the case of ATTTACCCAA, the switch fluorescence ratio was found to be 1.03. Under CACTAGCCCA stands 1; under CCACATCGGA, 1.01; under GGCGCGATGC, 1.39.

Regarding CGCGGTTGGG, the switch fluorescence ratio stood at 0.983. Take CGACTAATCG: the switch fluorescence ratio was determined as 0.991. To GCGAACCCAG belongs 3.87. To ACGTCTAAGA belongs 1.01; to AGCAGGATGA, 0.974. Under CGAACAGCAG stands 1.15.
